The target of experiment [1] is T1, huIL-15Rβ-6His (human, UniProt P14784 27-240, limits assumed).
T1 construct: Coated on the ELISA plate; also called hull-15Rβ-6His; IL-15Rβ subunit
T1 sequence: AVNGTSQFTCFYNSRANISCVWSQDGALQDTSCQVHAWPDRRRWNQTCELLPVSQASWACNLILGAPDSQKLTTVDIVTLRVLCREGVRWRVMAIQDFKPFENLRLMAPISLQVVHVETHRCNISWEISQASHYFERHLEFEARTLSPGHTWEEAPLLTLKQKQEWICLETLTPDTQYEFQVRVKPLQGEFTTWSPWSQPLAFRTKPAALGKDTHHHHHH
In words: ELISA binding EC50 relative to wild type P-0153. The procedure:
(§1) The binding activity was tested in ELISA assay. Briefly, Nunc Maxisorp (ThermoFisher) plates were coated overnight at 4° C. with hull-15Rβ-6His at 1 ug/well (100 μl/well) in bicarbonate buffer pH 9.4 (ThermoFisher). After washing 3 times with PBS/0.05% Tween20, plates were incubated with SuperBlock (300 μl/well) at room temperature for 2 hrs. to block nonspecific binding. After washing, IL-15 compounds each at 3-fold serial dilutions with blocking buffer were added to the plates (100 μl/well) and incubated at room temperature for 1 hr. After washing, the Fc fusions were detected by 1 hr. incubation at room temperature with a goat anti-human IgG Fc secondary antibody conjugated with horseradish peroxidase (HRP) at 1:5000 dilution in blocking buffer (ThermoFisher) (100 μl/well). After washing, TMB substrate (ThermoFisher) was added (100 μl/well). Plates were sealed and incubated 5-20 min at room temperature in dark. Reaction was stopped by adding 2N sulfuric acid (Ricca Chemical) (50 μL/well) and absorbance was read at 450-590 nm.

The target in experiment [2] is T1, huIL-15Rβ-6His. The experiment can be described thus: ELISA binding to IL-15Rβ, relative to wild type (repeats Table 3). The procedure:
as §1

The target in experiment [3] is T1, huIL-15Rβ-6His. The experiment can be described thus: ELISA, huIL-15Rβ-6His coated on plate, anti-human IgG Fc-HRP detection. The procedure: as §1

B1: P-0179, IL-15/IL-15Rα heterodimeric Fc fusion, IL-15m1 (Q108S) (Fc fusion)
chain 1: [about 250 residues not shown][about 120 residues with changes not shown]
chain 2: DKTHTCPPCPAPEAAGAPSVFLFPPKPKDTLMISRTPEVTCVVVDVSHEDPEVKFNWYVDGVEVHNAKTKPREEQYNSTYRVVSVLTVLHQDWLNGKEYKCKVSNKALPAPIEKTISKAKGQPREPQVCTLPPSREEMTKNQVSLWCLVKGFYPSDIAVEWESNGQPENNYKTTPPVLDSDGSFFLYSKLTVDKSRWQQGNVFSCSVMHEALHNHYTQKSLSLSPGEPKSSDKTHTSPPSPITCPPPMSVEHADIWVKSYSLYSRERYICNSGFKRKAGTSSLTECVLNKATNVAHWTTPSLKCIRDPALVHQRPAPP
In experiment [1], B1 returned a Fold change of 2 fold. Moreover, the “Fold change in binding EC50” value in experiment [2] was 2 fold. A half-maximal response in experiment [3] (EC50) required 1.42 nM.

B2: P-0180, IL-15/IL-15Rα heterodimeric Fc fusion, IL-15m2 (Q108A) (Fc fusion)
chain 1: [about 250 residues not shown][about 120 residues with changes not shown]
chain 2: DKTHTCPPCPAPEAAGAPSVFLFPPKPKDTLMISRTPEVTCVVVDVSHEDPEVKFNWYVDGVEVHNAKTKPREEQYNSTYRVVSVLTVLHQDWLNGKEYKCKVSNKALPAPIEKTISKAKGQPREPQVCTLPPSREEMTKNQVSLWCLVKGFYPSDIAVEWESNGQPENNYKTTPPVLDSDGSFFLYSKLTVDKSRWQQGNVFSCSVMHEALHNHYTQKSLSLSPGEPKSSDKTHTSPPSPITCPPPMSVEHADIWVKSYSLYSRERYICNSGFKRKAGTSSLTECVLNKATNVAHWTTPSLKCIRDPALVHQRPAPP
B2: the Fold change in experiment [1] worked out at 4 fold. In experiment [3], this molecule returned an EC50 of 2.76 nM.

The record behind these values is US20250388641A1 (CUGENE, published 2025).
